{"source": "PubChem BioAssay AID662", "about": "(National Center for Advancing Translational Sciences (NCATS), 2007)", "note": "In all, about 71,000 compounds went through this assay and about 1,800 (2.5%) were called active. The inconclusive results got no clear call from the source; some entries with a clear call stand among them for comparison. The call rests on the fitted dose curve; in most records, active means well fitted activation curve with a large enough effect in the signal ratio, with a control signal flat (not every such curve was filed as active); inconclusive means small, poorly fitted or top-dose-only effect, or effect the other way, or a change in a side signal; inactive means flat fitted curve, though single readings scatter; the % refers to the signal ratio. Potencies beside an inconclusive call are fits to weak or partial responses and may not hold up. Potency means the concentration at half of the fitted maximal effect; tags describe the fitted curve by direction and shape."}
{"assay": "Cell signaling CRE-BLA (Fsk stim); on activity change, negative = inhibition: % of control where 0% means no effect", "details": "CHO CRE-bla reporter (cAMP response element driving beta-lactamase), forskolin EC10, beta-lactamase ratio; activity change, negative = inhibition: at 38.2 µM (top of the series) unless noted", "summary_of_the_method": "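Modulation of forskolin-driven signalling is measured in CHO cells carrying a CRE-controlled beta-lactamase reporter. Cells are stimulated with EC10 NKH 477 in the presence of titrated compound for 3 h at 37 °C, then loaded with CCF4 for 2 h at room temperature.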"}
{"smiles": "O=C(O)[C@@H](O)c1ccc(F)cc1", "activity change, negative = inhibition": "inactive: -6.18% [at 7.6 µM]"}
{"smiles": "Cc1nc2n(c(=O)c1CCN1CCC(c3noc4cc(F)ccc34)CC1)CCCC2", "activity change, negative = inhibition": "inactive"}
{"smiles": "CCOc1cccc2cc(-c3cn4cc(C)ccc4n3)c(=O)oc12", "Potency": "active: 1 µM"}
{"smiles": "O=C1NCCN1C(=O)N(c1ccccc1)c1ccccc1", "activity change, negative = inhibition": "inactive: 0.146%"}
{"smiles": "COC(=O)c1ccc(C23CC2(C(NP(=O)(c2ccccc2)c2ccccc2)c2ccccc2)C3)cc1", "note": "(configuration not stated)", "activity change, negative = inhibition": "inactive: -13.1%"}
{"smiles": "Cc1noc(C)c1S(=O)(=O)N1CCC2(CC1)OCCO2", "activity change, negative = inhibition": "inconclusive: -13.2%"}
{"smiles": "COC(=O)c1ccc(C(NC(=O)OCc2ccccc2)/C(C)=C/[C@@H](C)C(=O)NCCc2c[nH]c3ccc(OC)cc23)cc1", "note": "(some centres not stated)", "activity change, negative = inhibition": "inconclusive: -19.5%"}
{"smiles": "CC(=O)[C@H]1[C@H]2[C@H](C(=O)[C@@H]3OC[C@H]2O3)[C@@H]2c3ccccc3C=CN12", "activity change, negative = inhibition": "inactive: -15.5%"}
{"smiles": "COc1cc(C(=O)O[C@@H]2CC(C)=CC[C@@]3(C)CC[C@](O)(C(C)C)[C@H]23)ccc1O", "Potency": "inconclusive: 31.6 µM [rising, single point]"}
{"smiles": "Cc1ccccc1CN1CCNC1=O", "activity change, negative = inhibition": "inconclusive: -11.6%"}
{"smiles": "COc1ccc2c(c1OC)C(=O)N(c1nccs1)C2", "Potency": "inconclusive: 10 µM [rising, partial curve]"}
{"smiles": "Cc1ccc(CNC(=O)CCS(=O)(=O)c2ccc(Br)s2)o1", "activity change, negative = inhibition": "inconclusive: 20.5%"}
{"smiles": "COc1ccccc1-c1nc(SCc2ccccn2)n[nH]1", "Potency": "inconclusive: 25.1 µM [rising, single point]"}
{"smiles": "O=C(CSc1nc2ccccc2c(=O)n1Cc1ccco1)c1ccc(F)cc1", "activity change, negative = inhibition": "inactive: 3.87%"}
{"smiles": "COc1ccc(C)cc1NC(=O)CSc1nnc(COc2ccccc2)n1Cc1ccco1", "activity change, negative = inhibition": "inactive: -25.1%"}
{"smiles": "CCN(CC)COC(=S)S", "activity change, negative = inhibition": "inactive: 11.9% [at 7.6 µM]"}
{"smiles": "FC(F)(F)c1ccccc1-c1nc(Nc2ccncc2)c2ccccc2n1", "Potency": "inconclusive: 3.98 µM [rising, full curve]"}
{"smiles": "CCOC(=O)CSc1nc2ccc(NC(C)=O)cc2s1", "activity change, negative = inhibition": "inconclusive: 7.02% [at 7.6 µM]"}
{"smiles": "O=C(Nc1ccc(Cl)cc1C(=O)NCc1cccnc1)c1ccco1", "activity change, negative = inhibition": "inconclusive: 23.6%"}
{"smiles": "NCCC[C@@H](CC(=O)N[C@@H]1CCNC[C@H]1C(=O)N[C@H](CC(=O)N[C@@H](CCC(=O)O)CC(=O)O)Cc1ccccc1)NC(=O)C[C@H](CO)NC(=O)[C@@H]1CNCC[C@H]1N", "activity change, negative = inhibition": "inactive: -12.2%"}
{"smiles": "CCc1c(C)[nH]c2ccc(C)cc2c1=O", "activity change, negative = inhibition": "inactive: 4.29%"}
{"smiles": "O=c1c(-c2ccc(F)cc2)nc2cnc(N3CCOCC3)nc2n1Cc1cccs1", "Potency": "inconclusive: 1.26 µM [rising, partial curve]"}
{"smiles": "Cc1c(C)c2ccc(OCC(=O)N(C)C)c(C)c2oc1=O", "Potency": "inconclusive: 10 µM [rising, single point]"}
{"smiles": "COc1ccc(OCC(O)COc2ccc(OC)cc2)cc1", "activity change, negative = inhibition": "inconclusive: 1.64%"}
{"smiles": "CC1CCCc2sc3nc(NCc4ccco4)n4ncnc4c3c21", "note": "(configuration not stated)", "Potency": "inconclusive: 3.98 µM [rising, partial curve]"}
{"smiles": "O=C(NC1CCCC1)C(c1cccs1)N(C(=O)c1ccco1)c1ccc2c(c1)OCCO2", "note": "(configuration not stated)", "activity change, negative = inhibition": "inactive: -2.5%"}
{"smiles": "COc1ccc(-c2nc(C#N)c(N3CC(C)OC(C)C3)o2)cc1OC", "note": "(configuration not stated)", "activity change, negative = inhibition": "inactive: 24.2%"}
{"smiles": "Nc1cc(=O)[nH]c(SCC(=O)Nc2ccc(Br)cc2)n1", "activity change, negative = inhibition": "inconclusive: -0.901%"}
{"smiles": "O=C(Nc1ccc(Cl)c(C(F)(F)F)c1)C1CCCN(S(=O)(=O)c2cnc[nH]2)C1", "note": "(configuration not stated)", "activity change, negative = inhibition": "inconclusive: 6.38%"}
{"smiles": "Cc1ccc(NCc2nnc(SCC(=O)N(Cc3ccccc3)C(C)(C)C)o2)c(C)c1", "activity change, negative = inhibition": "inconclusive: -4.53%"}
{"smiles": "Cc1ccc(C)c(Cn2c(=O)n(CCC(=O)NCc3ccco3)c(=O)c3ccccc32)c1", "activity change, negative = inhibition": "inconclusive: 9.83%"}
{"smiles": "COc1ccc(Cl)cc1Nc1nc(C)cc(=O)[nH]1", "activity change, negative = inhibition": "inconclusive: 25.9%"}
{"smiles": "COc1ccc(-c2n[nH]c(C(F)(F)F)c2-c2cc3ccccc3o2)c(O)c1", "activity change, negative = inhibition": "inactive: -5.82%"}
{"smiles": "CC(C)N1CC23C=CC(O2)C(C(=O)OCc2ccccc2)C3C1=O", "note": "(configuration not stated)", "activity change, negative = inhibition": "inactive: -7.25%"}
{"smiles": "C=CCn1c(=O)c2ccccc2n2c(SCc3cc(=O)n4ccsc4n3)nnc12", "activity change, negative = inhibition": "inconclusive: 23.1%"}
{"smiles": "Cc1csc(OCc2ccc(C#N)cc2)n1", "activity change, negative = inhibition": "inconclusive: -1.23%"}
{"smiles": "Cn1c(-c2ccc3c(c2)OCO3)cc(=O)c2ccccc21", "activity change, negative = inhibition": "inactive: 9.65% [at 17.1 µM]"}
{"smiles": "CCCC(=O)c1cc2ccccc2oc1=O", "activity change, negative = inhibition": "inconclusive: -22.4%"}
{"smiles": "CC(=O)Nc1cccc(C(=O)N2CCN(Cc3ccccc3)CC2)c1", "activity change, negative = inhibition": "inactive: -9.63%"}
{"smiles": "CCOc1ccc(OCCSc2nnnn2C2CCCCC2)cc1", "activity change, negative = inhibition": "inactive: 20.2%"}
{"smiles": "C[C@@](N)(C(=O)O)c1ccc(S(=O)(=O)O)cc1", "Potency": "inconclusive: 7.94 µM [falling, partial curve, poor fit]"}
{"smiles": "COc1cccc(-c2nc(N3CCNCC3)c3ccccc3n2)c1", "activity change, negative = inhibition": "inconclusive: 16.8%"}
{"smiles": "Clc1ccc(OCCN2CCN(c3ncnc4sccc34)CC2)cc1", "activity change, negative = inhibition": "inconclusive: -26%"}
{"smiles": "CCCCCCC1C(C#N)=C(N)OC2=C1C(=O)CCC2", "note": "(configuration not stated)", "Potency": "inconclusive: 7.94 µM [rising, partial curve]"}
{"smiles": "Cc1ccc(-c2nnc(SCc3ccccc3F)o2)cc1", "activity change, negative = inhibition": "inactive: 9.74%"}
{"smiles": "O=C(CCC(=O)c1ccc[nH]1)c1ccc(Cl)cc1", "activity change, negative = inhibition": "inconclusive: 0.773%"}
{"smiles": "COc1ccc(CC(=O)Nc2cccc(-c3nnc(-c4cccc(C)c4)o3)c2)cc1OC", "Potency": "inconclusive: 6.31 µM [falling, partial curve]"}
{"smiles": "CCCN1C2=C(C(=O)CCC2)C(c2ccc(O)c(Br)c2)C2=C1CCCC2=O", "Potency": "inconclusive: 10 µM [rising, partial curve]"}
{"smiles": "CCn1c(=O)cc(SCC(=O)NCc2ccc3c(c2)OCO3)c2ccccc21", "Potency": "inconclusive: 12.6 µM [rising, partial curve]"}
{"smiles": "CCc1cc2c(=O)c(-c3nc4ccccc4n3C)c(C)oc2c(CN2CCN(C)CC2)c1O", "activity change, negative = inhibition": "inactive: 2.67%"}
{"smiles": "COc1cc(C(=O)N2CCN(C(=O)C(Cc3cc(C)ccc3C)NC(C)=O)CC2)cc(OC)c1OC", "note": "(configuration not stated)", "activity change, negative = inhibition": "inconclusive: 11.4%"}
{"smiles": "c1ccc(CN2CCN(c3ncnc4nc[nH]c34)CC2)cc1", "Potency": "inconclusive: 12.6 µM [rising, partial curve]"}
{"smiles": "Cc1cc(=O)oc2cc(OCC(=O)OCC(=O)N3CCc4ccccc43)ccc12", "activity change, negative = inhibition": "inactive: 8.72%"}
{"smiles": "CCS(=O)(=O)N1CCN(C(=O)c2cc(OC)cc(OC)c2)CC1", "Potency": "inconclusive: 3.98 µM [falling, single point]"}
{"smiles": "CCOc1ccc(C(=O)NCCCn2ccnc2)cc1", "activity change, negative = inhibition": "inactive: 0.13%"}
{"smiles": "CCSc1nnc(NC(=O)c2ccc(Br)s2)s1", "activity change, negative = inhibition": "inconclusive: 21%"}
{"smiles": "CC1=CCC(C(=O)O)C(C(=O)O)C1", "note": "(configuration not stated)", "activity change, negative = inhibition": "inconclusive: -17.6% [at 7.6 µM]"}
{"smiles": "Cc1c(C(=O)O)sc2nc3n(c(=O)c12)CCC(C)CC3", "note": "(configuration not stated)", "activity change, negative = inhibition": "inconclusive: 31.6%"}
{"smiles": "COCCN(C(=O)c1csnn1)C(C(=O)NC(C)(C)C)c1cccc(OC)c1", "note": "(configuration not stated)", "activity change, negative = inhibition": "inactive: 0.291%"}
{"smiles": "O=C(CC(c1ccccc1)c1ccccc1O)NCCN1CCOCC1", "note": "(configuration not stated)", "activity change, negative = inhibition": "inactive: -2.87%"}
{"smiles": "Cc1ccc(NC(=O)CN2C(=O)NC(Cc3ccccc3)C2=O)cc1", "note": "(configuration not stated)", "activity change, negative = inhibition": "inconclusive: -17.1%"}
{"smiles": "C=CCN1CN(S(=O)(=O)c2cccs2)c2nc3ccccc3nc21", "Potency": "inconclusive: 5.01 µM [rising, partial curve]"}
{"smiles": "Cc1ccc(S(=O)(=O)Nc2nc3ccccc3nc2NCc2ccco2)cc1C", "Potency": "inconclusive: 20 µM [rising, single point]"}
{"smiles": "Cc1ccc(S(=O)(=O)c2c(N)n(CCN3CCOCC3)c3nc4ccccc4nc23)cc1C", "activity change, negative = inhibition": "inactive: 4.5%"}
{"smiles": "O=S(=O)(NCc1ccc2c(c1)OCO2)c1cccc(S(=O)(=O)N2CCOCC2)c1", "Potency": "inconclusive: 3.16 µM [rising, single point]"}
{"smiles": "CC(CCc1nc2ccccc2s1)(c1ccc(O)cc1)c1ccc(O)cc1", "activity change, negative = inhibition": "inactive: 1.46% [at 7.6 µM]"}
{"smiles": "COc1ccc(NC(=O)C2CCCN(S(=O)(=O)c3cccc4cccnc34)C2)cc1OC", "note": "(configuration not stated)", "activity change, negative = inhibition": "inconclusive: -2.81%"}
{"smiles": "O=C(OCCN1C(=O)c2ccccc2C1=O)c1cc(=O)[nH]c2ccccc12", "Potency": "inconclusive: 7.94 µM [rising, partial curve]"}
{"smiles": "CCOc1ccccc1NC(=O)CN(C)S(=O)(=O)c1ccc(OC)c(C)c1", "activity change, negative = inhibition": "inactive: 3.55%"}
{"smiles": "COc1ccc(C2CC(c3ccccc3)Nc3nc(NC(=O)c4cccs4)nn32)cc1", "note": "(configuration not stated)", "Potency": "inconclusive: 6.31 µM [falling, partial curve]"}
{"smiles": "COc1ccc(C(=O)N2CCC3(CCN(Cc4ccncc4)CC3)CC2)cc1", "activity change, negative = inhibition": "inactive: -3.15%"}
{"smiles": "Cc1cccc(OCc2nnc(SCC(=O)N(C(C)C)C(C)C)n2Cc2ccco2)c1C", "Potency": "active: 12.6 µM"}
{"smiles": "Cc1nnc(OCc2nc3ccccc3n2C)c2ccccc12", "Potency": "active: 2.51 µM"}
{"smiles": "COc1ccc(C(c2nnnn2Cc2ccc(F)cc2)N2CCN(c3ccccc3)CC2)cc1", "note": "(configuration not stated)", "activity change, negative = inhibition": "inconclusive: -14.9%"}
{"smiles": "COC(=O)c1sc(NC(=O)c2ccc(OC)cc2OC)nc1C", "activity change, negative = inhibition": "inconclusive: 7.13%"}
{"smiles": "COc1cc(OC)nc(NC(=O)CSc2nc3ccccc3[nH]2)n1", "Potency": "inconclusive: 12.6 µM [rising, single point]"}
{"smiles": "COc1ccc(NC(=O)Cn2nnc(-c3ccccc3NC(=O)c3ccco3)n2)cc1", "activity change, negative = inhibition": "inactive: 17.8%"}
{"smiles": "COc1ccc(-c2noc(CCC(=O)N(C)c3cccc(C)c3)n2)cc1", "Potency": "inconclusive: 25.1 µM [rising, single point]"}
{"smiles": "OC1CCCN(c2c3c(nc4cc(-c5cccc(Cl)c5)nn24)CCC3)C1", "note": "(configuration not stated)", "activity change, negative = inhibition": "inconclusive: 27.2%"}
{"smiles": "Cc1cc(C(=O)CSc2nnnn2C)c(C)n1CCc1ccc(F)cc1", "activity change, negative = inhibition": "inconclusive: 8.78%"}
{"smiles": "COC(=O)[C@@]1(Cc2ccc(OC)cc2)[C@H]2c3cc(C(=O)N4CCCC4)n(Cc4ccc(O)c(OC)c4)c3C[C@H]2CN1C(=O)c1ccccc1", "activity change, negative = inhibition": "inconclusive: 13.4%"}
{"smiles": "CCN(CC)CCN1C(=O)C(=O)/C(=C(/O)c2cnn(-c3ccccc3)c2C)C1c1cccnc1", "note": "(configuration not stated)", "activity change, negative = inhibition": "inactive: 2.84%"}
